Publication PMC5892938
Some of the results follow. At the low end of the ranking the order means little.

target: GST-SBP-SLBP (stem-loop binding protein) (UniProt Q14493); experiment: targeted RNA Bind-n-Seq; settings: RBNS binding buffer: 25 mM Tris pH 7.5, 150 mM KCl, 3 mM MgCl2, 0.1% Tween, 0.5 mg/mL BSA, 1 mM DTT; 27 nM protein, 750 pM RNA pool; temperature not stated; high values mean tight binding;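 note: DESeq read counts versus GST-SBP nonspecific binding control pulldown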

Sequence	binding signal (log2 fold change)
GGUCACGUCUCAAUCAACUCCCCAGAGGGGGGGAAAACCCCUUUACCCUCGUCAUCAACAGCUCGCAGUCAAG	-0.486
GGUCACGUCUCAAUCAACUCUUUCUCCAGGGAAAGCCCUGGUUUUCUCAACAGCUCGCAGUCAAG	0.042
GGUCACGUCUCAAUCAACUCUUCGUCCAGGGAAACCCCUGGCUAAUUCAACAGCUCGCAGUCAAG	-0.0179
GGUCACGUCUCAAUCAACUCAUUAGAGGGGGGGAAAACCCCUUUGCCCUCAUUCUCAACAGCUCGCAGUCAAG	0.167
GGUCACGUCUCAAUCAACUCUUUUCCCAGGGAAACCCCUGGUUUAUUCAACAGCUCGCAGUCAAG	0.0755
GGUCACGUCUCAAUCAACUCUAUCUCCAGGGAAAUCCCUGGCAUUUUCAACAGCUCGCAGUCAAG	-0.075
GGUCACGUCUCAAUCAACUCUACUCCCAGGGAAACCCCUGGCAUAUUCAACAGCUCGCAGUCAAG	-0.0245
GGUCACGUCUCAAUCAACUCUAUUUCAGGAGUUUUCUCCUGCUAUCUCAACAGCUCGCAGUCAAG	-0.0208
GGUCACGUCUCAAUCAACUCAUCUCCAGGAGUUUCCUCCUGCAAUCUCAACAGCUCGCAGUCAAG	0.0805
GGUCACGUCUCAAUCAACUCCCACGAGGGGGGGAAAACCCCUUUACCCUCACACUCAACAGCUCGCAGUCAAG	0.366
GGUCACGUCUCAAUCAACUCUAUCCCCAGGGAAAUCCCUGGCUUACUCAACAGCUCGCAGUCAAG	-0.0776
GGUCACGUCUCAAUCAACUCCCACGAGGGGGGGAAAACCCCUUUACCCUCAACAUCAACAGCUCGCAGUCAAG	0.0694
GGUCACGUCUCAAUCAACUCAAUUCCAGGAGUUUCCUCCUGUAUAUUCAACAGCUCGCAGUCAAG	0.0916
GGUCACGUCUCAAUCAACUCAAUUUCAGGAGUUUCCUCCUGUUUACUCAACAGCUCGCAGUCAAG	0.109
GGUCACGUCUCAAUCAACUCAUUUUCCAGGGAAAGCCCUGGCUAUUUCAACAGCUCGCAGUCAAG	-0.187
GGUCACGUCUCAAUCAACUCUAUUCCCAGGGAAAUCCCUGGUUUUCUCAACAGCUCGCAGUCAAG	-0.18
GGUCACGUCUCAAUCAACUCUUUUCCCAGGGAAAGCCCUGGCUUUCUCAACAGCUCGCAGUCAAG	0.234
GGUCACGUCUCAAUCAACUCUUUUCCCAGGGAAACCCCUGGCUAUGUCAACAGCUCGCAGUCAAG	-0.031
GGUCACGUCUCAAUCAACUCAUUCUCAGGAGUUUACUCCUGCUUAGUCAACAGCUCGCAGUCAAG	0.121
GGUCACGUCUCAAUCAACUCAUCCCCAGGAGUUUUCUCCUGCUAUCUCAACAGCUCGCAGUCAAG	0.0245
GGUCACGUCUCAAUCAACUCUUCUCCAGGAGUUUCCUCCUGUAAAUUCAACAGCUCGCAGUCAAG	0.222
GGUCACGUCUCAAUCAACUCACUAGAGGGGGGGAAAACCCCUUUACCCUCAUCUUCAACAGCUCGCAGUCAAG	0.00853
GGUCACGUCUCAAUCAACUCACACGAGGGGGGGAAAACCCCUUUACCCUCACAAUCAACAGCUCGCAGUCAAG	0.0588
GGUCACGUCUCAAUCAACUCUUUCUCCAGGGAAAACCCUGGCAAUUUCAACAGCUCGCAGUCAAG	0.0627

Sequence	binding signal (log2 fold change)
GGUCACGUCUCAAUCAACUCAUCUUCCAGGGAAAGCCCUGGCAUAUUCAACAGCUCGCAGUCAAG	0.0473
GGUCACGUCUCAAUCAACUCAUCUCCCAGGGAAAUCCCUGGCUUUCUCAACAGCUCGCAGUCAAG	0.164
GGUCACGUCUCAAUCAACUCUAUCCCCAGGGAAACCCCUGGUAUUCUCAACAGCUCGCAGUCAAG	-0.241
GGUCACGUCUCAAUCAACUCAUUUCCAGGAGUUUUCUCCUGCAUAUUCAACAGCUCGCAGUCAAG	0.0114
GGUCACGUCUCAAUCAACUCAUCGCCAGGAGUUUUCUCCUGUAUAUUCAACAGCUCGCAGUCAAG	0.0921
GGUCACGUCUCAAUCAACUCAUUCCCAGGAGUUUACUCCUGCAUACUCAACAGCUCGCAGUCAAG	0.139
GGUCACGUCUCAAUCAACUCUUUUUCAGGAGUUUACUCCUGCUAAUUCAACAGCUCGCAGUCAAG	0.184
GGUCACGUCUCAAUCAACUCUUCGCCCAGGGAAAACCCUGGUAAUUUCAACAGCUCGCAGUCAAG	-0.174
GGUCACGUCUCAAUCAACUCACAAGAGGGGGGGAAAACCCCUUUGCCCUCGAUAUCAACAGCUCGCAGUCAAG	0.468
GGUCACGUCUCAAUCAACUCAAUCCCCAGGGAAAGCCCUGGCAAUUUCAACAGCUCGCAGUCAAG	-0.129
GGUCACGUCUCAAUCAACUCAAUAGAGGGGGGGAAAACCCCUUUACCCUCAUACUCAACAGCUCGCAGUCAAG	-0.0281
GGUCACGUCUCAAUCAACUCAUCUUCAGGAGUUUACUCCUGUUAUCUCAACAGCUCGCAGUCAAG	0.106
GGUCACGUCUCAAUCAACUCAACUUCAGGAGUUUGCUCCUGCUUUUUCAACAGCUCGCAGUCAAG	-0.0543
GGUCACGUCUCAAUCAACUCUACUUCAGGAGUUUUCUCCUGUAAUCUCAACAGCUCGCAGUCAAG	0.0687
GGUCACGUCUCAAUCAACUCAUCCUCAGGAGUUUGCUCCUGUUUAUUCAACAGCUCGCAGUCAAG	0.187
GGUCACGUCUCAAUCAACUCAACUCCAGGAGUUUCCUCCUGCAUUUUCAACAGCUCGCAGUCAAG	0.145
GGUCACGUCUCAAUCAACUCUAGUCCAGGAGUUUCCUCCUGCUUAUUCAACAGCUCGCAGUCAAG	-0.147
GGUCACGUCUCAAUCAACUCAUCGUCAGGAGUUUCCUCCUGUUAAUUCAACAGCUCGCAGUCAAG	0.0271
GGUCACGUCUCAAUCAACUCUAUAGAGGGGGGGAAAACCCCUUUGCCCUCCACAUCAACAGCUCGCAGUCAAG	-0.206
GGUCACGUCUCAAUCAACUCAACUUCAGGAGUUUUCUCCUGCUUUCUCAACAGCUCGCAGUCAAG	-0.11
GGUCACGUCUCAAUCAACUCUACUCCCAGGGAAACCCCUGGUUUUCUCAACAGCUCGCAGUCAAG	0.0669
GGUCACGUCUCAAUCAACUCAUUUCCAGGAGUUUUCUCCUGUUAACUCAACAGCUCGCAGUCAAG	0.0261
GGUCACGUCUCAAUCAACUCAUGUCCAGGAGUUUCCUCCUGUUAUUUCAACAGCUCGCAGUCAAG	0.0938
